# Laboratory results from PubChem BioAssay AID624418 (National Center for Advancing Translational Sciences (NCATS), 2012).
# “And” between values parts separate entries of the source, which are not always exact repeats. Equal values may be shown once. Out of some 410,000 compounds screened, about 530 (0.13%) were called active. The inconclusive results got no clear call from the source; some entries with a clear call stand among them for comparison. Calls follow the shape of the dose curve; as a rule, active = well fitted inhibition curve with a large enough effect; inconclusive = small, poorly fitted or top-dose-only effect, or another doubt; inactive = no such curve, though single readings can be large or run the other way. Where the call is inconclusive, the potency comes from a doubtful curve fit.
# Experiment: qHTS of GLP-1 Receptor Inverse Agonists: Cytotox Screen
# Settings: HEK293 cAMP-luciferase reporter cells, luminescence, 24 h; activity change, negative = inhibition: at 38.3 µM (top of the series) unless noted
# Outline: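 Quantitative HTS format, 1536 wells, 200 cells/uL seeded. Compounds: 23 nL, 24 h, 37 °C. Detection: luciferase reagent, luminescence at 12 min RT; decreased signal taken as cytotoxic.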
# % is scaled to controls: 0 for no effect and ±100 for the full control effect; potency is read from the fitted curve at half-maximal effect.
SMILES,Potency,"activity change, negative = inhibition"
CCOc1ccc2[nH]c(O)c(NC(C)=O)c2c1,inactive,–
COc1ccc(C(=O)NC2CC2)cc1OC1CCN(C(C)CSC)CC1 (stereo not drawn),inactive,–
COc1ccc(Cn2c(CCC(=O)NCc3ccc(Cl)cc3)nc3cccnc32)cc1,inactive,–
Cc1cc(C)nc(Nc2nc(C)c3cc4c(cc3n2)OCO4)n1,–,inconclusive: -31.4% [inhibitor]
Cc1ccc(C(=O)NCC(c2ccc3c(c2)OCO3)N2CCOCC2)cc1C (stereo not drawn),inactive,–
CC(C)(C)C(=O)Nc1ccccc1C(=O)NCCC(=O)Nc1ccccc1,"inconclusive: 0.501 µM [inhibitor, full curve, poor fit]",–
Cc1cc(NC(=O)CCN2CCN(C/C=C/c3ccccc3)CC2)ccc1Br,"inconclusive: 5.62 µM [inhibitor, single point]",–
COc1ccc2[nH]c(=O)c(C(c3nnnn3CC3CCCO3)N3CCc4ccccc4C3)cc2c1 (stereo not drawn),inactive,–
CN(c1ccccc1)S(=O)(=O)c1ccc(NC(=O)c2nc(S(C)(=O)=O)ncc2Cl)cc1,"inconclusive: 20 µM [inhibitor, single point] and inconclusive: 10 µM [inhibitor, partial curve, poor fit]",–
Cc1nc2nc(C)n(CCN3CCOCC3)c(=O)c2c(-c2cccc([N+](=O)[O-])c2)c1C(=O)CCCCCCCCCCN1CCC(c2ccccc2)(c2ccccc2)CC1,"inconclusive: 14.1 µM [inhibitor, partial curve, poor fit]",–
O=C(CSc1nc(C2CCCCC2)nc2ccccc12)NCc1ccco1,"inconclusive: 28.2 µM [inhibitor, single point]",–
CC(C)=CCCC(C)CN1CCC(N2CCC(C(=O)NC(C)C)CC2)CC1 (stereo not drawn),inactive,–
O=C(Nc1ccc2c(c1)OCCO2)c1ccccc1,inactive,–
O=[N+]([O-])c1cc(S(=O)(=O)Nc2ccccc2)ccc1N1CCN(c2ccccc2)CC1,"inconclusive: 20 µM [inhibitor, single point]",–
Cn1cc(CN2CCC(C(=O)NC(c3ccc(F)cc3)c3ccc4ccccc4n3)CC2)c2ccccc21 (stereo not drawn),"inconclusive: 11.2 µM [inhibitor, partial curve, poor fit]",–
Cc1ccc(Nc2nc(NCc3ccco3)c3ccccc3n2)cc1,"inconclusive: 28.2 µM [inhibitor, single point]",–
Cc1ccc(/C=N/N2CCN(c3ccccc3)CC2)cc1,inactive,–
N=c1c2ccccc2nc2n1CCCCCCCCCCC2,"inconclusive: 10 µM [inhibitor, partial curve, poor fit]",–
CCN(CC)CCOC(=O)c1ccc(NC(=O)c2cc3c(=O)n(CC)c4ccccc4c3s2)cc1,inactive,–
Cc1ccc(CNc2nc3cc(-c4ccccc4)sc3c(=O)n2C)c(C)c1,inactive,–
COc1ccc2c(C)nc(Nc3nc(C)c(C)c(=O)[nH]3)nc2c1,"inconclusive: 3.98 µM [inhibitor, full curve, poor fit]",–
Cc1nc(/C(N)=N/OC(=O)c2cccc(Cl)c2)c(C(F)(F)F)o1,inactive,–

SMILES,Potency,"activity change, negative = inhibition"
Cc1ccccc1S(=O)(=O)Cc1ccc(C(=O)N2CCN(c3cccc(Cl)c3)CC2)o1,"inconclusive: 7.08 µM [inhibitor, partial curve, poor fit]",–
Cc1ccc(-n2nc(-c3ccccc3)cc2Nc2ccccc2N)cc1,inactive,–
O=C(/C(=N/O)c1ccccc1)c1ccccc1,"inconclusive: 8.91 µM [inhibitor, single point]",–
O=C(NC(=S)N1CCN(c2ccc(F)cc2)CC1)C12CC3CC(CC(C3)C1)C2,inactive,–
CSc1ccc(CC(=O)N2CCC(n3nccc3NC(=O)C3CC3)CC2)cc1,inactive,–
CN(C)CCCN(C(=O)C1=COCCO1)c1nc2ccc(Br)cc2s1,"inconclusive: 8.91 µM [inhibitor, partial curve]",–
c1ccc2c(c1)CCOC2CNCCCN1CCCCC1 (stereo not drawn),"inconclusive: 7.08 µM [inhibitor, partial curve, poor fit]",–
CCCCN1/C(=C/c2ccc3ccccc3[n+]2CC)Sc2ccccc21,"inconclusive: 28.2 µM [inhibitor, single point]",–
CCN(C(=O)COC(=O)C1=COCCO1)c1c(N)n(Cc2ccccc2)c(=O)[nH]c1=O,inactive,–
COc1ccccc1/C=C/C(=O)NCC(=O)N/N=C(/C)c1ccc(Cl)cc1,"inconclusive: 28.2 µM [inhibitor, single point]",–
CCCCn1cnc2cc(C)c(C)cc21,"inconclusive: 28.2 µM [inhibitor, single point]",–
CC1(C)CC(=O)C2=C(C1)Oc1nc3ccccc3cc1C2C(C#N)C#N (stereo not drawn),"inconclusive: 4.47 µM [inhibitor, partial curve, poor fit]",–
CN(NC(=O)c1ccc(Cl)cc1)c1nc(-c2ccccc2)nnc1C(F)(F)F,"inconclusive: 25.1 µM [inhibitor, single point]",–
CC(Cc1ccccc1)C(=O)N[C@@H](CO)Cc1ccccc1 (stereo partly drawn),"inconclusive: 28.2 µM [inhibitor, single point]",–
O=C(/C=C/c1cn(-c2ccccc2)nc1-c1ccc2c(c1)OCCO2)NCCCN1CCOCC1,"inconclusive: 11.2 µM [inhibitor, single point]",–
CN(C)S(=O)(=O)c1ccc(N2CCCC2)c(C(=O)NNC(=O)COc2ccc(Cl)cc2)c1,inactive,–
OC[C@@H]1CN(Cc2cccs2)C[C@H](n2cnc3c(NCc4ccc(F)cc4)ncnc32)O1,inactive,–
COC(=O)c1c(NC(=S)NN2CCN(C)CC2)sc2c1CCC(C)C2 (stereo not drawn),"inconclusive: 28.2 µM [inhibitor, single point]",–
Cc1ccc(NC(=O)CSc2nc(NS(=O)(=O)c3ccc(C)cc3)cc(=O)[nH]2)cc1,"inconclusive: 31.6 µM [inhibitor, single point]",–
C#CCOc1ccc(/C=C2\SC(=S)N(Cc3cccnc3)C2=O)cc1,"inconclusive: 5.01 µM [inhibitor, partial curve]",–
O=C(NC(=S)N1CCN(Cc2ccccc2)CC1)c1ccco1,"inconclusive: 6.31 µM [inhibitor, partial curve, poor fit]",–
